This is one part of the list. Sequences were assembled here from the parent chain. Values near 0.05 are background.
B1: TEV protease; numbered along this chain (parent)
chain: MGESLFKGPRDYNPISSSICHLTNESDGHTTSLYGIGFGPFIITNKHLFRRNNGTLVVQSLHGVFKVKDTTTLQQHLVDGRDMIIIRMPKDFPPFPQKLKFREPQREERICLVTTNFQTKSMSSMVSDTSCTFPSGDGIFWKHWIQTKDGQCGSPLVSTRDGFIVGIHSASNFTNTNNYFTSVPKNFMELLTNQEAQQWVSGWRLNADSVLWGGHKVFMVKPEEPFQPVKEATQL

Variants of: B1
Assay: raw area under fraction-flipped curve 0-4 h after induction (AUC4h, not background-subtracted), DNA-recorder readout of cleavage of the substrate (dimensionless); higher = more cleavage of the substrate by the protease variant
Details: temperature: 34 °C; time window: 0-4 h after rhamnose induction
Experimental: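 In vivo DNA recorder in E. coli TOP10(DE3) ΔrhaA at 34 °C. Each TEVp single-site mutant (parent TEVp 0) is paired with a single-site variant of the 7-mer TEVs (canonical ENLYFQ|S). The substrate sits between flexible linkers in a Bxb1-sfGFP-TEVs-SsrA fusion, so cleavage stabilises Bxb1 and speeds flipping of a recombination array, read by NGS. The value is the raw area under the fraction-flipped curve over 0-4 h after rhamnose induction (AUC4h), with ≥20 reads per time point. It is not background-subtracted; inactive controls average about 0.047.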
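Further: Bxb1 expression induced with 0.2% (w/v) L-rhamnose at OD600 near 0.5, cultures sampled hourly, flipped fraction per protease–substrate barcode pair counted by paired-end Illumina sequencing.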

Variant	area with substrate ANLYFQS	area with substrate CNLYFQS	area with substrate HNLYFQS	area with substrate INLYFQS	area with substrate KNLYFQS	area with substrate LNLYFQS	area with substrate MNLYFQS	area with substrate PNLYFQS	area with substrate SNLYFQS	area with substrate TNLYFQS	area with substrate WNLYFQS	area with substrate YNLYFQS	area with substrate FNLYFQS	area with substrate GNLYFQS	area with substrate NNLYFQS	area with substrate VNLYFQS	area with substrate RNLYFQS	area with substrate DNLYFQS	area with substrate QNLYFQS
G28R	0.0719	0.0594	0.0517	0.0471	0.0651	0.0703	0.0635	0.0638	0.0626	0.0638	0.0567	0.0649	–	–	–	–	–	–	–
G28W	0.0702	0.0551	0.0601	0.0739	–	0.0464	0.0445	0.0624	0.0539	0.068	0.0498	–	0.0497	0.0637	0.0559	–	–	–	–
T30G	0.074	0.0997	0.0594	0.057	0.0616	0.0541	0.0678	0.0656	0.102	0.0632	0.0576	0.0617	–	0.0153	0.0605	0.0718	–	–	–
T30K	0.0705	0.0737	0.0713	–	–	–	0.0553	–	0.0579	0.0689	0.0525	0.0252	0.0529	–	0.0528	–	–	–	–
Y34F	0.0493	0.0846	0.0659	0.06	–	–	0.0602	0.0584	–	–	0.0464	0.0617	–	–	–	–	–	–	–
Y34G	0.0648	0.025	0.0614	0.0539	0.0598	0.059	–	0.0673	–	–	–	–	–	0.0666	–	–	0.0507	–	–
Y34I	0.0829	0.066	0.0484	–	0.0532	0.0633	–	0.0632	–	0.0597	0.0602	–	–	–	–	0.0753	–	–	–
Y34Q	0.0664	0.0664	–	–	–	–	–	–	0.0663	0.0564	0.0583	–	–	–	–	–	0.048	–	–
G35P	0.0397	0.0583	–	–	–	–	–	–	–	0.0378	0.0756	–	–	–	–	–	–	–	–
I36L	0.0462	–	0.0678	0.056	0.0631	0.0672	0.07	0.0787	0.0603	0.072	–	0.0386	0.0808	0.0467	0.0726	–	–	0.0922	–
G37E	0.045	0.039	0.0498	0.039	–	0.0429	–	0.0445	0.0332	0.0402	0.0423	0.0399	0.052	–	0.0413	0.0468	–	–	–
G37K	0.042	–	0.048	0.0441	0.0625	0.0531	0.0507	0.0525	–	0.0615	0.048	0.0301	0.0411	–	0.0505	0.056	–	0.0167	–
G37N	0.0609	0.0566	–	0.0592	0.068	0.0636	–	0.0521	0.0539	0.0489	0.0547	0.0258	0.0706	0.0521	–	–	0.0281	–	–
F38A	0.0647	0.068	0.0555	0.0596	0.0482	0.0579	0.0506	0.0608	–	0.0677	0.0521	0.0571	0.0688	0.0463	0.044	–	–	–	–
F38L	0.0595	0.0611	0.0725	0.0644	0.0631	0.0511	0.0618	0.056	0.063	0.052	0.0565	0.0562	0.0691	0.0666	0.0613	0.076	0.0407	–	–
F38M	0.0622	0.0637	0.055	–	0.0622	0.0701	0.0579	0.0642	0.0629	0.0626	0.0321	0.054	–	0.0554	0.0676	0.0563	–	–	–
P40E	0.074	–	0.0655	0.0939	0.0753	0.085	–	0.0604	–	0.0914	0.0646	0.0638	–	–	–	–	–	0.0705	–
F41L	0.0612	0.0596	0.0612	0.0555	0.067	0.0646	–	0.0601	–	0.0627	0.0509	0.0493	–	0.0813	0.0631	0.0649	–	–	–
F41V	0.0805	0.0561	0.0692	–	0.0714	–	0.0581	0.0633	0.0635	0.0554	0.0597	0.0546	0.0469	0.0635	0.0618	0.0625	–	–	–
I42H	0.037	0.0605	0.0615	–	–	0.045	–	0.0379	0.0341	0.0457	0.0452	0.0301	–	–	0.0607	–	–	–	–
I42N	0.0642	0.0467	0.0462	–	–	0.053	0.0414	0.0276	0.0443	0.0397	0.0347	–	–	0.0392	0.0419	–	–	–	–
I43C	0.0677	0.0614	0.0541	0.081	0.0555	0.0715	0.0583	0.0658	0.076	0.06	0.0624	0.0561	0.0653	0.0451	0.0593	–	0.0489	–	0.0686
I43P	0.039	–	0.0479	0.0459	0.0402	–	0.0434	0.0486	0.0475	0.0449	0.0478	0.043	0.0399	0.0311	0.0457	0.0459	–	0.0768	–
I43T	0.0305	0.0536	0.0429	0.0493	0.0689	0.0579	0.0403	0.047	0.0471	0.0565	0.054	0.0074	–	–	0.0708	0.0779	–	–	–
T44C	0.059	0.0588	0.0578	0.0643	0.0462	0.0573	0.059	0.0602	0.0643	0.0566	–	0.0583	0.064	0.0627	0.0682	0.0706	0.0663	–	–
T44Y	0.0381	–	0.0533	–	0.0451	–	0.035	0.0379	0.0509	0.0434	0.0432	–	–	–	0.0208	–	0.0505	0.0428	0.0311
N45A	0.0657	0.0463	0.0475	0.0536	0.0643	0.0459	0.0618	0.0666	0.0573	0.0592	0.0579	0.0485	0.0562	0.0661	–	0.0517	0.0588	–	–
N45K	0.0451	0.0588	0.0543	–	0.0578	0.0461	0.0505	0.0541	0.0499	0.0576	0.0604	0.0553	0.0588	0.0448	0.0658	0.0714	–	–	–

Reference: the supplement of paper PMC12217912
